“And” between values parts separate entries of the source, which are not always exact repeats. Equal values may be shown once. Inconclusive results, whose numbers are uncertain, are shown with a selection of clear calls. Potencies beside an inconclusive call are fits to weak or partial responses and may not hold up. The source made the active and inactive calls. Calls follow the shape of the dose curve; as a rule, active = well fitted curve in the direction sought with a large enough effect in the repeat runs; inconclusive = weak or mixed curves; inactive = no such curve, though single readings can be large; an effect the other way counts as inactive or inconclusive.
System: not listed separately
Experiment: qHTS assay to identify small molecule antagonists of the androgen receptor (AR) signaling pathway using the MDA cell line - cell viability counter screen (AID 743041; also: nearly all actives have a fitted effect of over 45% in size)
Details: MDA-kb2 viability, CellTiter-Fluor, 16 h, cells co-treated with R1881 androgen agonist; viability change, negative = cytotoxic: at 70.3 µM (top of the series) unless noted
Outline: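 qHTS viability read-out; MDA-kb2 AR-luc; R1881-stimulated; 16 h exposure at 37C, 0% CO2; CellTiter-Fluor, 30 min; fluorescence intensity.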
% is scaled to controls: 0 for no effect and ±100 for the full control effect; potency is read from the fitted curve at half-maximal effect; tags tell the direction and shape of the fitted curve.

Structure (SMILES) | Potency | viability change, negative = cytotoxic
CCCCCCCCCCCCCC[N+](C)(C)C | active: 18.8 µM and active: 41.8 µM and inconclusive: 15.3 µM [cytotoxic, partial curve] | 
CCOC(=O)C1=C[C@]2(CC)CCCN3CCc4c(n1c1ccccc41)[C@@H]32 |  | inconclusive: 33.9%
O[C@@H](c1cc(C(F)(F)F)nc2c(C(F)(F)F)cccc12)[C@H]1CCCCN1 | inconclusive: 31.2 µM [cytotoxic, single point] | 
CCCCCCCCCCCCOC(=O)c1ccc(O)cc1 | inactive | 
CC1(C)CCC(C)(C)c2cc(C(=O)Nc3ccc(C(=O)O)cc3)ccc21 | inconclusive: 61.1 µM [cytotoxic] | 
O=Cc1ccccc1C=O | inconclusive: 22.1 µM [cytotoxic, partial curve, poor fit] | 
N=C1C=CC(=C(c2ccc(N)cc2)c2ccc(N)cc2)C=C1 | active: 15.4 µM | 
C=CC(=O)OCCOCC(CC)(COCCOC(=O)C=C)COCCOC(=O)C=C | inconclusive: 28.4 µM [cytotoxic, partial curve] | 
CCCC(=O)OC[C@@H](OC(=O)CCC)[C@@H](OC(=O)CCC)[C@H](Cn1c2nc(=O)[nH]c(=O)c-2nc2cc(C)c(C)cc21)OC(=O)CCC | inconclusive: 10.6 µM | 
CC(=O)OC(OC(C)=O)c1ccc([N+](=O)[O-])o1 | inconclusive: 69.8 µM [cytotoxic, single point] | 
N#CSc1ccc(N)c([N+](=O)[O-])c1 | active: 61.5 µM | 
C=C(C)C(=O)OCC(O)COc1ccc(C(C)(C)c2ccc(OCC(O)COC(=O)C(=C)C)cc2)cc1 (stereo not given) | active: 21.7 µM | 
CCc1oc2ccccc2c1C(=O)c1cc(I)c(O)c(I)c1 | inconclusive: 31.2 µM [cytotoxic, single point] | 

Target: Androgen receptor (Homo sapiens) (UniProt P10275)
Sequence of UniProt P10275 (P10275 whole entry, looked up): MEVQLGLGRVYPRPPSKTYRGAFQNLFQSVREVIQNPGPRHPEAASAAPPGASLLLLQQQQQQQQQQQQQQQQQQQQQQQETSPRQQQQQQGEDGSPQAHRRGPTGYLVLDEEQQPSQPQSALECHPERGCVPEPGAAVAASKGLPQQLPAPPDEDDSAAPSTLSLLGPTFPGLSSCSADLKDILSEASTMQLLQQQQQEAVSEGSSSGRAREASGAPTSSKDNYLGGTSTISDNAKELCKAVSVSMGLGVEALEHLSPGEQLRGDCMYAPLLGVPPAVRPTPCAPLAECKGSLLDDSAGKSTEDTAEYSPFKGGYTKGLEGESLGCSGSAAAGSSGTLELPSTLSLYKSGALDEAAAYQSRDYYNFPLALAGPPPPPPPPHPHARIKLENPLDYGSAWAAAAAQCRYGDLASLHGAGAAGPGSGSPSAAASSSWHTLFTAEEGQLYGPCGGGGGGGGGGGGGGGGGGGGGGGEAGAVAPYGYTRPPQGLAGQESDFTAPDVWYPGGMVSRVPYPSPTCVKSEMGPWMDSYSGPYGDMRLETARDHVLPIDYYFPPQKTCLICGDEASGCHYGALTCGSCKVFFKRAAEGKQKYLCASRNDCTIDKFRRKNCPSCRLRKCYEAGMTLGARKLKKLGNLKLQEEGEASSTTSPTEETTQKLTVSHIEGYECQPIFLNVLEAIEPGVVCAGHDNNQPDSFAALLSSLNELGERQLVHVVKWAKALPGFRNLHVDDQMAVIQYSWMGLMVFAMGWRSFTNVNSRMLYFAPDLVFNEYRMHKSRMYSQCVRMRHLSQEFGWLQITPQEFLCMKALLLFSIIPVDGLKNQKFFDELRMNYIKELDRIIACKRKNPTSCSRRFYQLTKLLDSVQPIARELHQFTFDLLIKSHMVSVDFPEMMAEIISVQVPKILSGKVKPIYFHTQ
Experiment: qHTS assay to identify small molecule antagonists of the androgen receptor (AR) signaling pathway using the MDA cell line (AID 743042; also: nearly all actives have a fitted effect of over 55% in size)
Details: MDA-kb2 AR-luc, MMTV luciferase, R1881 antagonist, 16 h; series mostly up to 70.3 µM
Outline: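 MDA-kb2 cells (human breast carcinoma, stably carrying an MMTV-luciferase reporter responsive to AR and GR) were plated at 3,000 cells/well and preincubated 5 hr at 37C, then given compound plus R1881 agonist for 16 h. ONE-Glo luminescence was read.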

Structure (SMILES) | Potency
CCN(CC)c1ccc(C(=C2C=CC(=[N+](CC)CC)C=C2)c2ccc(S(=O)(=O)O)cc2S(=O)(=O)[O-])cc1 | inactive
c1cc(C(c2ccc(OCC3CO3)cc2)c2ccc(OCC3CO3)cc2)ccc1OCC1CO1 (stereo not given) | inconclusive: 68.6 µM [inhibitor, single point]
CC1(C)CCC(C)(C)c2cc(C(=O)Nc3ccc(C(=O)O)cc3)ccc21 | inconclusive: 68.6 µM [inhibitor, single point]
O=Cc1ccccc1C=O | inconclusive: 18.8 µM [inhibitor, partial curve] and active: 8.63 µM
CN1CCN(C2Cc3ccccc3Sc3ccc(Cl)cc32)CC1 (stereo not given) | inactive
N#CSc1ccc(N)c([N+](=O)[O-])c1 | active: 61.5 µM
CC(C)(C)c1cc(O)c(C(C)(C)C)cc1O | inconclusive: 68.6 µM [inhibitor, single point]

— PubChem BioAssay (Tox21)
